In the supplement of paper PMC9446081:
Among all 39,000 compounds or so, about 220 (0.56%) showed activity. Some of the results follow.

Tested on: Escherichia coli K-12 BW25113
Test: relative growth (OD600 normalised to plate interquartile mean) (fraction); higher = less growth inhibition, active = 0.2 or less
Settings: 50 µM; LB; incubation time: overnight (16-24 h)
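Also: static incubation at 37 °C against the wild-type strain, values averaged over two biological replicates.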

Row | SMILES | relative growth
1 | Cc1ccc(S(=O)(=O)Nc2ccc3c(c2)C(=O)N([C@H](C)CO)C[C@H](C)[C@@H](CN(C)S(=O)(=O)c2ccc(F)cc2)O3)cc1 | inactive: 0.997
2 | COc1ccc(NC(=O)Nc2ccc3c(c2)C(=O)N([C@@H](C)CO)C[C@@H](C)[C@@H](CN(C)C(=O)Nc2ccc(C(F)(F)F)cc2)O3)cc1 | inactive: 1.02
3 | C[C@@H]1CN([C@@H](C)CO)C(=O)CCCn2cc(nn2)CO[C@H]1CN(C)C(=O)C1CC1 | inactive: 1.02
4 | O=C(N1CCN(CCO)CC1)C(F)(F)F | inactive: 1.02
5 | COc1ccc(CN(C)C[C@@H]2OCCCC[C@H](C)Oc3ccc(NC(=O)Nc4cccc5ccccc45)cc3C(=O)N([C@@H](C)CO)C[C@H]2C)cc1 | inactive: 1
6 | O=S(=O)(NCCCN(C/C=C/c1ccc(F)cc1)C/C=C/c1ccc(F)cc1)c1cccc2cnccc12 | inactive: 0.905
7 | COc1ccc(NC(=O)Nc2ccc3c(c2)C(=O)N([C@H](C)CO)C[C@H](C)[C@@H](CN(C)C(=O)Cc2ccccc2)OCCCC[C@H](C)O3)cc1 | inactive: 0.999
8 | COCC(=O)N(C)C[C@@H]1Oc2cc(C#CCC3CCCC3)ccc2S(=O)(=O)N([C@H](C)CO)C[C@@H]1C | inactive: 0.998
9 | C[C@H]1CN([C@@H](C)CO)C(=O)Cc2cc(NS(=O)(=O)c3cccs3)ccc2O[C@@H]1CN(C)S(=O)(=O)c1cccs1 | inactive: 0.998
10 | Cc1noc(C)c1NC(=O)N(C)C[C@H]1Oc2ccc(NC(=O)C3CC3)cc2CC(=O)N([C@@H](C)CO)C[C@@H]1C | inactive: 0.994
11 | O=C1C2CC3CC1CC(O)(C3)C2 | inactive: 1.14
12 | CCN1CCN(c2cc3c(cc2F)c(=O)c(C(=O)O)cn3C2CC2)CC1 | active: 0.0449
13 | O=C(C[C@@H]1CC[C@@H]2[C@H](COC[C@H](O)CN2S(=O)(=O)c2ccccc2)O1)NCc1ccc(-c2ccccc2)cc1 | inactive: 1
14 | C[C@@H]1CCCCO[C@@H](CN(C)S(=O)(=O)c2ccccc2)[C@@H](C)CN([C@@H](C)CO)C(=O)c2cc(NC(=O)c3ccccc3)ccc2O1 | inactive: 1.04
15 | C[C@@H]1CN([C@@H](C)CO)C(=O)c2cc(NC(=O)Cn3cnnn3)ccc2O[C@H]1CN(C)C(=O)Nc1cccc2ccccc12 | inactive: 0.997
16 | C[C@@H]1CN([C@@H](C)CO)C(=O)c2cc(NS(=O)(=O)c3cn(C)cn3)ccc2O[C@@H](C)CCCCO[C@H]1CN(C)Cc1ccc(C(F)(F)F)cc1 | inactive: 0.987
17 | COCC(=O)Nc1ccc2c(c1)C(=O)N(C)[C@@H]1CC[C@@H](CC(=O)NCc3ccccc3Cl)O[C@H]1CO2 | inactive: 1.04
18 | Cc1ccc(S(=O)(=O)Nc2ccc3c(c2)C(=O)N([C@@H](C)CO)C[C@H](C)[C@H](CN(C)C(=O)Cc2ccccc2)OCCCC[C@H](C)O3)cc1 | inactive: 0.998
19 | O=C(C[C@H]1C[C@@H]2c3cc(NC(=O)c4ccc5c(c4)OCO5)ccc3O[C@@H]2[C@@H](CO)O1)NCc1cccnc1 | inactive: 0.994
20 | CCCCCNC(=N)NN=Cc1c[nH]c2ccc(OC)cc12.O=C(O)C=CC(=O)O | inactive: 0.879
21 | CO[C@H]1O[C@H](CO)[C@@H](OC(=O)Nc2cccc(F)c2)[C@H](OC(=O)Nc2ccccc2-c2ccccc2)[C@@H]1OC(=O)Nc1ccccc1-c1ccccc1 | inactive: 1.04

Row | SMILES | relative growth
22 | C[C@@H]1CN([C@@H](C)CO)C(=O)c2cc(NS(=O)(=O)c3ccccc3)ccc2O[C@@H](C)CCCCO[C@H]1CN(C)C(=O)CCC(F)(F)F | inactive: 1
23 | O=C1CSCCN1 | inactive: 1.01
24 | CCCN(C)C[C@H]1OCCCC[C@H](C)Oc2ccc(NC(=O)C3CCCCC3)cc2C(=O)N([C@@H](C)CO)C[C@H]1C | inactive: 0.99
25 | CC1(C)[C@H]2CC[C@@]1(C)/C(=N/O)C2 | inactive: 0.993
26 | O=C(C[C@@H]1CC=CC[C@H](NC(=O)OCC2c3ccccc3-c3ccccc32)C(=O)O[C@@H](c2ccccc2)CNC1=O)N[C@@H](CO)Cc1ccccc1 | inactive: 1.01
27 | C[C@H](CO)N1C[C@H](C)[C@H](CN(C)Cc2ccc(Cl)c(Cl)c2)OCCCC[C@H](C)Oc2ccc(NC(=O)C3CCCCC3)cc2C1=O | inactive: 0.994
28 | CC(C)(O)c1coc(S(=O)(=O)NC(=O)Nc2c3c(cc4c2CCC4)CCC3)c1 | inactive: 1.01
29 | COCCCN(C[C@]1(O)CC[C@H]2C3=CC=C4C[C@@H](O)CC[C@]4(C)[C@@H]3CC[C@@]21C)C(=O)O[C@H]1C[C@@H](C)CC[C@@H]1C(C)C | inactive: 1
30 | CO[C@@H]1CN(C)C(=O)c2cc(NC(=O)CC(F)(F)F)ccc2OC[C@@H](C)N(S(=O)(=O)c2cn(C)cn2)C[C@@H]1C | inactive: 1.02
31 | O=C(C[C@H]1C=C[C@H](NC(=O)CN2CCOCC2)[C@@H](CO)O1)NCc1cccc(F)c1 | inactive: 0.997
32 | C[C@H](CO)N1C[C@H](C)[C@H](CN(C)C(=O)Cc2ccccn2)Oc2ncc(-c3cccc(C(=O)N(C)C)c3)cc2C1=O | inactive: 1.01
33 | C[C@@H](NC(=O)C[C@@H]1C=C[C@@H](NC(=O)CN2CCOCC2)[C@@H](CO)O1)c1ccccc1 | inactive: 0.966
34 | COc1cc(NS(C)(=O)=O)ccc1Nc1c2ccccc2nc2ccccc12 | inactive: 1.02
35 | CCOCC(=O)Nc1cc(C)on1 | inactive: 0.995
36 | C[C@@H]1CCCCO[C@H](CN(C)C(=O)c2ccncc2)[C@H](C)CN([C@H](C)CO)C(=O)c2cc(NC(=O)NC3CCCCC3)ccc2O1 | inactive: 0.994
37 | C[C@@H]1CN([C@@H](C)CN=[N+]=[N-])C(=O)c2cc(NC(=O)Nc3ccccc3)ccc2O[C@@H](C)CCCCO[C@H]1CN(C)S(=O)(=O)c1ccc(F)cc1 | inactive: 1.02
38 | C[C@H](CO)N1C[C@H](C)[C@@H](CN(C)S(=O)(=O)c2ccc(Cl)cc2)Oc2ccc(N(C)C)cc2CC1=O | inactive: 1.04
39 | COc1ccc(S(=O)(=O)Nc2ccc3c(c2)CC(=O)N([C@H](C)CO)C[C@@H](C)[C@@H](CN(C)CC2CC2)O3)cc1 | inactive: 1.01
40 | CN1CCN(C(=O)C[C@H]2C[C@@H]3c4cc(NS(=O)(=O)c5ccc(F)cc5)ccc4O[C@@H]3[C@H](CO)O2)CC1 | inactive: 0.968
41 | CC(C)NC(=O)Nc1ccc2c(c1)C(=O)N([C@@H](C)CO)C[C@H](C)[C@@H](CN(C)S(=O)(=O)c1cn(C)cn1)OCCCC[C@@H](C)O2 | inactive: 1.02
42 | C[C@@H]1CN([C@H](C)CO)C(=O)CCCn2nncc2CO[C@H]1CN(C)C(=O)Nc1ccc(C(C)(C)C)cc1 | inactive: 0.99

Row | SMILES | relative growth
43 | Cc1noc(C)c1NC(=O)Nc1cccc2c1O[C@@H](CN(C)Cc1ccc(Cl)c(Cl)c1)[C@@H](C)CN([C@@H](C)CO)C2=O | inactive: 0.982
44 | Cl.Cl.N=C(N)N | inactive: 0.938
45 | Cc1noc(C)c1NC(=O)Nc1ccc2c(c1)C(=O)N([C@@H](C)CO)C[C@@H](C)[C@H](CN(C)C(=O)c1ccccc1)OCCCC[C@@H](C)O2 | inactive: 1.03
46 | CC(=O)N[C@H](CC(C)C)C(=O)O | inactive: 1.04
47 | CO/N=C(\C(=O)N[C@@H]1C(=O)N2C(C(=O)O[C@@H](C)OC(C)=O)=C(COC(N)=O)CS[C@H]12)c1ccco1 | inactive: 1.01
48 | CO[C@H]1CN(C)C(=O)c2cc(NS(=O)(=O)c3cn(C)cn3)ccc2OC[C@@H](C)N(Cc2cccc(F)c2)C[C@@H]1C | inactive: 1
49 | CN(C)CCCC[C@@H]1NC(=O)[C@@H]2C[C@H](C(=O)NCCCCCNC(=O)CS)[C@H](c3ccc(O)cc3)N2C1=O | inactive: 0.993
50 | C[C@H]1CN([C@@H](C)CO)C(=O)c2c(c3ccccc3n2C)-c2ccccc2CO[C@@H]1CN(C)Cc1ccc(C(F)(F)F)cc1 | inactive: 1.06
51 | Cc1cc(C(=O)Nc2cccc3c2O[C@@H](CN(C)S(=O)(=O)c2ccc(Cl)cc2)[C@@H](C)CN([C@@H](C)CO)C3=O)n(C)n1 | inactive: 1
52 | COc1ccc(NC(=O)Nc2ccc3c(c2)C(=O)N([C@@H](C)CO)C[C@@H](C)[C@H](CN(C)Cc2ccccc2)OCCCC[C@H](C)O3)cc1 | inactive: 0.965
53 | C[C@H]1CN([C@@H](C)CO)C(=O)c2cccc(NS(=O)(=O)c3cn(C)cn3)c2O[C@H]1CN(C)C(=O)Nc1ccc2c(c1)OCO2 | inactive: 1
54 | CC(C)NC(=O)N(C)C[C@@H]1OCCCC[C@@H](C)Oc2ccc(NC(=O)Nc3ccccc3)cc2C(=O)N([C@H](C)CO)C[C@@H]1C | inactive: 0.998
55 | C[C@@H]1CN([C@@H](C)CO)S(=O)(=O)c2ccc(-c3cncnc3)cc2O[C@@H]1CN(C)C(=O)C1CCCCC1 | inactive: 0.98
56 | Cc1ccc(S[C@]2(C(=O)NC3CC3)CC(=O)N(C3CCCCC3)[C@@H]2c2ccc(CO)cc2I)cc1 | inactive: 1.05
57 | C[C@@H]1CCCCO[C@H](CN(C)S(=O)(=O)c2ccc(Cl)cc2)[C@@H](C)CN([C@H](C)CO)C(=O)c2cc(NS(=O)(=O)c3cccs3)ccc2O1 | inactive: 1.02
58 | CCc1nc2ccc(C(=O)N3CCN(S(=O)(=O)CC)CC3)cn2c1N(C)Cc1ccc(Cl)cc1 | inactive: 0.992
59 | C[C@@H]1CCCCO[C@@H](CN(C)Cc2ccc(C(=O)O)cc2)[C@@H](C)CN([C@H](C)CO)C(=O)c2cc(NC(=O)Nc3ccc4c(c3)OCO4)ccc2O1 | inactive: 0.973
60 | C[C@@H]1CN([C@@H](C)CO)C(=O)c2cccc(NS(=O)(=O)c3cn(C)cn3)c2O[C@@H]1CN(C)S(=O)(=O)c1ccc(Cl)cc1 | inactive: 0.92
61 | Clc1ccc(CSc2nc3ccccc3s2)cc1 | inactive: 1.02
